The source of these data is PubChem BioAssay (NCI).

Molecules are shown by their SMILES. Several values for one entry are separate records, joined by “and”; a condition that tells them apart may be missing. Identical values can stand only once.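 48-hour exposure; five concentrations; linearly interpolated endpoints. GI50 is the concentration that inhibits growth by half. Definition used: TGI = concentration required for complete inhibition of growth.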 Some results are limits rather than exact numbers.

In the experiment the test system is NCI-H322M lung. The experiment in a line: NCI tumour cell line growth inhibition, 48 h.
Regarding `CC1=C2NCN(C)N=C2C(C#N)(C#N)C1(C#N)C#N`, the TGI was > 100 µM.

Consider `O=C1OI(C#Cc2ccccc2)c2ccccc21`, for which the TGI worked out at 27.2 µM. In the case of `Cc1ccc(-n2c3c(c4c(CN5CCOCC5)c(O)ccc42)CCc2ccccc2C3=O)cc1`, the GI50 is > 100 µM and the TGI was > 100 µM. As for `Cc1cc(=O)[nH]c(NNC(C#N)c2ccc([N+](=O)[O-])cc2)n1` (stereo not given), the TGI was > 100 µM.

With `Nc1c(N=Nc2ccc(-c3ccc(N=Nc4c(O)ccc5cc(S(=O)(=O)O)cc(S(=O)(=O)O)c45)cc3)cc2)c(S(=O)(=O)O)cc2cc(S(=O)(=O)O)c(N=Nc3ccccc3)c(O)c12`, the TGI is > 100 µM. As to `O=C(/C=C/c1cn(-c2ccccc2)nc1-c1ccc([N+](=O)[O-])cc1)c1ccc(Cl)cc1`, the GI50 is > 100 µM and the TGI is > 100 µM. In the case of `C[C@@H]1C/C=C\C(=O)O[C@H](/C=C/C#C/C=C/C(C)(C)[C@@H](O)c2cccc(O)c2Br)[C@@H](C)/C=C/[C@H](C)C[C@H](OC(N)=O)C1`, the GI50 was 0.0772 µM and the TGI amounted to 19.7 µM.

In the case of `COc1cc(-n2cc(-c3cc(O)c(C/C=C(\C)CCC=C(C)C)c(O)c3)nn2)cc2c1O[C@]1(C)CC[C@@H](O)C(C)(C)[C@H]1C2`, the GI50 is 4.01 µM and the TGI turned out to be 30.8 µM. Regarding `CC(C)(C)OC(=O)N1CCc2c(n(C/C=C/c3ccccc3)[nH]c2=O)C1`, the TGI was > 100 µM. Regarding `COC(=O)/C=C/c1ccc2c(c1)CC1(Cc3ccccc3C1)C2`, the TGI is > 100 µM.

As for `O=C(Cc1ccc(/C=C/C(=O)c2ncc[nH]2)cc1)Nc1ccc(C(F)(F)F)cc1`, the GI50 was 4.68 µM and the TGI stood at 9.41 µM.

Turning to `C/C(=N/NC(=O)CC(=O)N(C(=O)c1ccccc1Cl)c1ccc(C)cc1)c1cc2ccccc2oc1=O`, the TGI was > 100 µM. For `CC/C(Cl)=N\OC(=O)Nc1ccc(F)cc1F`, the TGI came to 33.1 µM. On the same count and under the same terms, the figure for `CC1(C)OC(COCCOCCCCCO)C(COCCOCCCCCO)O1` (stereo not given) is > 100 µM; for `COc1ccc(C2NCCc3c2[nH]c2ccccc32)cc1` (stereo not given) it is > 100 µM; for `CC(C)(C)c1cc(CCC(=O)Nc2ccc(Cl)cc2Cl)nc(N)n1` it is > 100 µM. Take `C=C(CNCCc1ccc(O)cc1)[C@@H]1CC[C@]2(CO)CC[C@]3(C)[C@H](CC[C@@H]4[C@@]5(C)CCC(N)C(C)(C)[C@@H]5CC[C@]43C)[C@@H]12` (stereo not given in full): the GI50 is 1.61 µM and the TGI is 3.02 µM. `O=c1oc2ccc(Cl)cc2cc1-c1cn2ccsc2n1`: the TGI is > 100 µM.

In turn, `CC[C@@]1(O)C(=O)OCc2c1cc1n(c2=O)Cc2cc3c(N)cccc3nc2-1` came in with a TGI of 9.09 µM. `CN(C)C/C=C/C(=O)Nc1ccc(C(=O)N2CCC[C@@H](Nc3ncc(Cl)c(-c4c[nH]c5ccccc45)n3)C2)cc1`: the GI50 is 0.147 µM and the TGI was found to be 10.2 µM.

In the case of `COc1ccc(C=Nc2ccc(-c3nc4ccccc4[nH]3)cc2)cc1OC`, the TGI is > 100 µM.

On to `CC12CC(C/C1=N/O)C(C)(C)C2` (stereo not given), for which the TGI was > 100 µM.

In the case of `CCOC(=O)/C(C#N)=C/N(CC)/N=C/c1ccccc1`, the TGI was > 100 µM. Same read-out and setting: the figure for `CCCCCCCCCCCCCCCCOCC(Cl)COP(=O)(O)OP(=O)(O)OCC1OC(n2cnc3c(N)ncnc32)C(O)C1O` (stereo not given) is > 100 µM.

In the case of `Cc1c(C(=O)OCc2ccccc2)[n+](=O)c2cc(F)c(F)cc2n1[O-]`, the TGI was 4.8 µM. Same read-out and setting: for `Cc1cc([N+](=O)[O-])c(S(=O)(=O)c2ccccc2)c([N+](=O)[O-])c1` the value was 28.3 µM. Same read-out and setting: the figure for `CC1=C2C(=O)c3ccccc3C(=O)[C@H]2C[C@@H](N2CCCCCC2=O)O1` is 63.7 µM. With `C/C(=N/O)c1ccc2c(c1)C(=NO)c1cc(/C(C)=N/O)ccc1-2`, the TGI came out at 31.3 µM.

In the case of `Cc1nnc(N=Nc2c(O)[nH]c3ccccc23)n1N`, the TGI was > 100 µM. The same measure, in the same setting: the figure for `O=C(CSc1nc2ccc(I)cc2c(=O)n1Cc1ccccc1)NN1C(=O)CCC1=O` is > 100 µM; for `O=[N+]([O-])C1C2C=CC(C2)[C@H]1c1ccc(Cl)cc1Cl` (stereo not given in full) it is > 100 µM. Still for that read-out and setting: the figure for `O=C1CSC2(CC(/C=C/c3ccccc3Br)=NN2c2cccc(S(=O)(=O)O)c2)N1c1nc2ccccc2s1` (stereo not given) is > 100 µM; for `Cc1cc2n([O-])cccc-2[n+](=O)c1` it is > 100 µM. In the case of `O=C(Nc1cc(S(=O)(=O)c2ccc(Cl)cc2)ccc1Cl)c1cc(I)cc(I)c1O`, the GI50 is 15.9 µM and the TGI was found to be 29.4 µM. On the same counts, the results for `O=C(O)C1C(C(=O)O)C2(Cl)C(Cl)=C(Cl)C1(Cl)C2(Cl)Cl.[Cd]` (stereo not given) are 17.5 µM and 35 µM.

`CC1(C)C2CCC13C(=O)C1OC3(C2)C2C(=O)c3c(O)cccc3C(=O)C12` (stereo not given): the GI50 was 10.1 µM and the TGI amounted to 22.4 µM. As for `COc1ccc2cc(-c3c(-c4ccncc4)nc(-c4ccc(S(C)=O)cc4C)n3C)ccc2c1` (stereo not given), the GI50 is > 25 µM and the TGI was > 25 µM. For the compound `O=C1CSc2nnc(CCCCCCCCc3nnc4n3NC(=O)CS4)n2N1`, the TGI is > 100 µM.

Take `COc1ccc(C2ONC3=NCCN32)cc1` (stereo not given): the GI50 was > 100 µM and the TGI is > 100 µM.

Take `CC[C@H](C)[C@H](NC(=O)[C@H]1CCCCN1C)C(=O)N(C)[C@H](C[C@@H](OC(C)=O)c1nc(C(=O)N[C@@H](Cc2ccccc2)C[C@H](C)C(=O)OC)cs1)C(C)C`: the GI50 was 0.000644 µM. On to `Nc1ncnc2c1c(-c1ccc(Oc3ccccc3)cc1)nn2C[C@@H]1SSC[C@@H]1O`, for which the GI50 is 2.24 µM and the TGI was found to be 18.1 µM.

`CC(c1ccccc1)N1CC(C)(c2ccccc2)N(O)C(c2ccccc2)C1C` (stereo not given): the TGI stood at 68.8 µM. Still for that read-out and setting: for `COC(=O)C(C(=O)C(=O)NC1Nc2ccc(C)cc2S1)c1nc2ccc(Cl)cc2[nH]c1=O` (stereo not given) the value was > 100 µM. As for `CNc1ccc(S(=O)Nc2ccccc2)cc1` (stereo not given), the TGI was > 100 µM. Still for that read-out and setting: the figure for `O=C(O)Cn1ccnc1[N+](=O)[O-]` is > 100 µM; for `Nc1ncc(/C=N/O)c(NCC2(CO)CC(CCc3ccccc3)C2)n1` (stereo not given) it is 24.2 µM. On the same count and under the same terms, for `CC1(C)[C@@H]2CC[C@@]1(C)[C@H](O)[C@@H]2SCc1ccccc1` the value was 38.5 µM.

Turning to `CC(=O)Oc1ccc(C2(c3ccc(OC(C)=O)cc3)C(=O)Nc3ccccc32)cc1`, the GI50 is 1.24 µM and 0.699 µM; the TGI was > 100 µM. Compound `COc1cc2cc(C(=O)N3CC(CCl)c4c3cc([N+](C)(C)Cc3ccc([N+](=O)[O-])n3C)c3ccccc43)[nH]c2c(OC)c1OC` (stereo not given) returned a TGI of 7.09 µM. Regarding `COc1ccccc1/C=C\C(=O)c1ccccc1`, the GI50 is 17.4 µM and the TGI is 32 µM. Turning to `Cn1c(=O)sc2cc(C(=S)N3CCOCC3)ccc21`, the TGI is > 100 µM. Turning to `CN(C)C(=O)SC1=C(c2c(Cl)cccc2Cl)C(=O)c2ccccc21`, the GI50 is 16.5 µM and the TGI turned out to be 32.9 µM. `O=C(Nc1ccc(Cl)cc1)Nc1ccccc1CNc1nc(Nc2ccc(OCCN3CCCC3)cc2)ncc1Cl`: the GI50 is 1.56 µM and the TGI was 6.34 µM. `CC(C)(C)CC(C)(C)c1ccc(OCCOCC[N+](C)(C)Cc2ccccc2)cc1` had a TGI of 24.4 µM. The same measure, in the same setting: the figure for `c1ccc([P+](c2ccccc2)(c2ccccc2)c2ccc([P+](c3ccccc3)(c3ccccc3)c3ccccc3)cc2)cc1` is > 100 µM.

`COc1nc2c(c(O)c(C)c(=O)n2OC2OC(COC(C)=O)C(OC(C)=O)C(OC(C)=O)C2OC(C)=O)c(=O)n1C` (stereo not given): the TGI was > 100 µM. As to `CCc1cccc(CC)c1/C=C/c1cncc(C(=O)NC)c1`, the GI50 is > 25 µM and the TGI is > 25 µM.

In the case of `COc1ccc(/C=C(/C(=O)n2cnnn2)c2cc(OC)c(OC)c(OC)c2)cc1`, the GI50 is 8.31 µM and the TGI was > 100 µM.

For `COC1=CC(=O)C2=C(C1=O)[C@H]1CC[C@]3(C)[C@@H](OC(C)=O)CC[C@H]3[C@@H]1CC2`, the TGI was > 100 µM. On the same count and under the same terms, for `CCN(CC)CCN(C)CCc1ccc(Br)cc1` the value was > 100 µM.

On to `O=C(c1ccco1)C1CC(c2ccc3ccccc3c2O)=NN1c1ccc([N+](=O)[O-])cc1[N+](=O)[O-]` (stereo not given), for which the TGI was > 100 µM. The same measure, in the same setting: the figure for `Cc1ccccc1NC(=O)C(=O)CC(=O)c1ccc([N+](=O)[O-])cc1` is > 100 µM. As for `CCN(CC)CCOc1ccc(/C=C2\CC3C4CC=C5C[C@@H](OC(C)=O)CC[C@]5(C)C4CC[C@]3(C)C2=O)cc1OC` (stereo not given in full), the GI50 was 7.86 µM and the TGI amounted to 19.9 µM.

Take `CCCCCCCCCCCCCCCCS(=O)(=O)c1ccc(NN)cc1`: the TGI is > 10 µM. `COc1ccc(NC(=O)c2sc3nc4c(cc3c2N)CCCC4)cc1`: the GI50 was 6.07 µM and the TGI was > 100 µM. On the same counts, the results for `NC(=O)c1cc(I)ccc1NC(=O)COc1ccccc1` are 1.37 µM and > 100 µM. For the compound `COc1cc([C@H]2c3[nH]c4ccccc4c3C[C@H]3COC(=O)N32)cc(OC)c1O`, the TGI is > 100 µM. Take `Cc1n(Cc2ccc3ccccc3c2)c(Cl)c(Cl)[n+]1Cc1ccc2ccccc2c1`: the GI50 was 2.47 µM and the TGI was found to be 7.65 µM. Turning to `CC(C)(C)[Si](C)(C)OCC1OC(n2cnc3c(N)ncnc32)C(O)C1O` (stereo not given), the TGI was > 100 µM. Consider `CCOC(=O)CCCn1cc(C(=O)OC)nn1`, for which the TGI is > 100 µM. As for `O=P(O)(O)CN1CCNCCN(CP(=O)(O)O)CCNCC1`, the TGI is > 100 µM. Turning to `CC(=O)NC1=C(NCC(C)C)C(=O)c2ccccc2C1=O`, the TGI is > 100 µM. Regarding `Cc1ccc(/C=C2\CNC/C(=C\c3ccc(C)cc3)C2=O)cc1`, the GI50 was 1.62 µM; the TGI was 3.41 µM and 14.4 µM.

Regarding `O=S1(=O)CCN(c2ccccc2CC(c2c[nH]c3ccccc23)c2c[nH]c3ccccc23)CC1`, the TGI is > 100 µM. The same measure, in the same setting: for `COC(=O)CC(NC(=O)OCc1ccccc1)C(C(=O)OCc1ccccc1)C1(C)OCCO1` (stereo not given) the value was > 100 µM. On the same count and under the same terms, for `NC(=O)C(=O)n1ncc(Cl)c(Cl)c1=O` the value was > 89.7 µM.

For `O=C(OCc1ccccc1C1CSCSC1)c1cc(C(=O)OCc2ccccc2C2CSCSC2)c(C(=O)OCc2ccccc2C2CSCSC2)cc1C(=O)OCc1ccccc1C1CSCSC1`, the TGI was > 100 µM.

Consider `CC1(C)COC(c2c(-c3ccccc3)noc2CS(=O)c2ccccc2)=N1` (stereo not given), for which the TGI is > 100 µM. As to `C=CC1=CC(C)C[C@]1(O)C(=O)OC` (stereo not given in full), the GI50 is > 100 µM. On to `CCOC(=O)c1nc2ccccc2nc1NCc1ccc(Cl)cc1Cl`, for which the TGI is > 100 µM.

As to `O=[N+]([O-])c1ccc(NS(=O)(=O)C(F)(F)F)cc1`, the TGI is > 100 µM.
